# Reference: the supplement of paper PMC3334620
# Over roughly 33,000 sequences, “E-score (-0.5 to 0.5)” has its median near -0.054; the highest 2% begin near 0.39. Some of the results follow.
# Molecular target: Ylr278c (UniProt Q05854)
# Test: PBM E-score (8-mer binding enrichment) (E-score (-0.5 to 0.5)); higher = stronger / more preferred TF binding; most listed sequences are background and not binding sites
# Conditions: protein concentration: 200 nM; construct: GST-DNA-binding domain
# Method: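 Universal 'all 10-mer' protein binding microarrays (Agilent AMADID 015681) probed with GST-tagged S. cerevisiae TFs (full-length or DBD) made by in vitro transcription/translation (PURExpress), about 100-200 nM. Bound TF was detected with fluorescent anti-GST. Each ungapped 8-mer (which stands for itself and its reverse complement) is scored by the PBM enrichment score (E-score), a modified Wilcoxon-Mann-Whitney statistic from -0.5 to +0.5, computed with the Universal PBM Analysis Suite. Scale: above 0.35 generally sequence-specific binding.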
row,Sequence,PBM E-score
1,GATATATA,0.153
2,CGCTATGC,0.137
3,TGCTCTAA,-0.211
4,AGGCGCAG,-0.25
5,ATGGCCGG,0.345
6,CCCGCTCA,0.131
7,AGAAGGAG,-0.18
8,GAGTGATA,-0.00358
9,AACGCCAA,-0.0358
10,GACTGGCA,-0.103
11,AGCAATCG,-0.0973
12,CAATTGGG,-0.147
13,AGGATTGA,-0.0189
14,CTGGGCGC,-0.168
15,ACCCAATC,0.00034
16,AGAACCAA,-0.0592
17,CTCTCTGA,-0.235
18,CTAACCGA,-0.0407
19,CATTGTTA,-0.179
20,CCTTCGCG,0.115
21,CGCATGGA,-0.184
22,CATTATGG,-0.00686
23,ATCTTGTC,0.0131
24,CATTCCAG,-0.295
25,GGAACCCA,0.0655

row,Sequence,PBM E-score
1,AGTGTGGC,0.0259
2,ATGTGGCC,-0.0779
3,CACGTACG,-0.152
4,AGACGGTC,-0.129
5,TGAGAGAA,-0.101
6,CCCTCTAA,-0.185
7,CAACTCGC,-0.0405
8,ATAGCGAA,-0.144
9,GTCACAGA,-0.154
10,CGTCCGTA,0.189
11,ACCTAGAT,-0.154
12,CTTGTCCA,-0.128
13,CAACAATC,-0.105
14,CTTATTTA,-0.201
15,TAGGCCGA,0.254
16,CAACATGC,-0.0851
17,CTGTTTTA,0.0217
18,CGAGTGGA,-0.00774
19,AAAAGGTC,-0.112
20,GCACCGGA,0.429
21,CCAATACC,0.192
22,ATCCAAAC,-0.0775
23,CGGCGCGC,0.3
24,AACCAGCC,0.0408
25,AGATTCAC,-0.154

row,Sequence,PBM E-score
1,CAAAAAAA,0.0916
2,CATCAGCG,0.0779
3,TATATGGA,-0.107
4,ACGTGTTC,-0.0185
5,TACGCTAA,-0.0975
6,AGTTCCAC,-0.0892
7,AACCCCTC,-0.154
8,CCGTAGAC,0.148
9,ACCTTCCT,-0.24
10,CAATAACG,0.0174
11,CCAAGTGG,-0.187
12,TATATTCA,0.0247
13,GTATTGCA,-0.0786
14,CCCGATAA,0.193
15,TCTGTGAA,-0.0514
16,CAGTTATA,0.0111
17,TAGTACCA,-0.0159
18,CGCTCGGA,0.408
19,CTAGTCGC,-0.175
20,CAGGAACA,-0.157
21,CTAGACAA,-0.027
22,AGGGGGGC,-0.224
23,GAAGCGGC,0.125
24,AACTAGCC,-0.218
25,GACGTGAA,-0.171

row,Sequence,PBM E-score
1,ACAGCAAG,-0.139
2,ACGGCCCC,-0.034
3,TCCGTCAA,0.352
4,ATAACTTG,-0.14
5,ATTTACAA,-0.16
6,AATTTCAG,-0.275
7,AATAACCG,0.178
8,CCTTGCCC,0.0607
9,AGCCAAGG,-0.211
10,AAAACTTA,-0.0467
11,TCACAGGA,-0.15
12,CCATCTTC,-0.00557
13,TACATATA,0.00744
14,AGACTAGA,-0.22
15,TGTTGTAA,-0.0583
16,GGTCCGAA,0.439
17,ACACCAAC,-0.126
18,GCGGAACC,0.254
19,ACGCTACA,-0.159
20,ATGATGCG,-0.0171
21,CCCGAGTC,0.218
22,CCGCGCCG,0.4
23,CAACGTGA,-0.172
24,CACACCAC,-0.00397
25,AATCCTTC,-0.0261

row,Sequence,PBM E-score
1,TACGTTCA,-0.23
2,GTTTGTTA,-0.00603
3,AAACTGCG,0.151
4,ATGCGCGG,0.296
5,ATTGATCG,0.0516
6,ATGGCAGA,-0.0323
7,CTAGTACC,-0.169
8,GTAGGATA,-0.156
9,ACGAGAAG,-0.124
10,AATCCACG,0.0023
11,ATGAAGTC,-0.138
12,TAAGCATA,-0.106
13,AATATAAC,-0.00861
14,AAATGGTT,-0.0331
15,CGCCCGAC,0.279
16,CAGTCCAA,-0.218
17,ACACGAGA,-0.162
18,ATGGGCCA,-0.098
19,AGACAGCA,-0.0712
20,CATACTCG,0.147
21,ACCGAAAG,0.0189
22,AAGTGTTA,-0.123
23,TACTACAA,-0.0307
24,AGCGGACA,0.294
25,ACATAAAC,-0.122

row,Sequence,PBM E-score
1,AATAAACC,0.0827
2,ATTAACGC,0.0233
3,TCGCCAGA,-0.26
4,CTACTCGA,-0.0146
5,TCACCGAA,0.178
6,AATTAGCA,0.01
7,ACGTGATA,-0.178
8,AAAAAAGA,-0.0771
9,AGTCGACG,0.0544
10,ATTAACTC,0.0677
11,GCCGTGAA,0.204
12,TGGCGCAA,-0.118
13,AGAGCACC,-0.204
14,GGTGTCTA,-0.175
15,AGGGTAGC,-0.222
16,GGGTGAAA,0.0762
17,AGATTAAG,-0.104
18,CATGCGTC,-0.0854
19,ATATCTCG,0.0977
20,AGCCGAGC,0.24
21,GAGCGAAC,-0.014
22,CGGTATGA,0.0369
23,GAGCGTCA,-0.076
24,TCAATACA,-0.184
25,AATGAAAG,-0.17

row,Sequence,PBM E-score
1,AAGAGTCA,-0.259
2,AGCGAGTG,-0.0417
3,GTGTGCTA,-0.0372
4,ATAACACC,0.158
5,CGTACGGA,0.301
6,ACTATACC,0.0206
7,CCTAGAGG,-0.229
8,AAGTTACT,0.0192
9,GTTGACCA,-0.111
10,ATAAGCAG,-0.148
11,ACCCGGGC,0.273
12,GCACGTCC,0.00088
13,ATCCTCGC,0.0602
14,CGCGCGCA,0.264
15,TGTTCTAA,-0.0481
16,AACGGGAC,0.0356
17,CACCCCGA,0.29
18,AGTTGGCA,-0.172
19,ACTTCACT,-0.0406
20,ATTTAAAG,0.209
21,AATAAGGA,-0.127
22,GCAATGAA,-0.0632
